Measured values as given in PubChem BioAssay AID485344 (National Center for Advancing Translational Sciences (NCATS), 2010).
Several values for one entry are separate records, joined by “and”; a condition that tells them apart may be missing. Identical values can stand only once. The whole screen tested about 340,000 compounds, of which about 6,900 (2%) were called active. No stated cut-off is given here; in the data, active means inhibition above about 30%; inactive means below that, where a call was filed. Only a part is listed here, and it is no random draw. Where no call is shown, the source filed none.

What follows are compounds tested against D(2) dopamine receptor (Homo sapiens) (UniProt P14416) (assay: HTS Assay for Allosteric Antagonists of the Human D2 Dopamine Receptor: Primary Screen for Antagonists). Details: HEK293 TREx D2 cells, calcium flux, dopamine EC80; at 10 µM; stronger effect = higher value.
Chain of UniProt P14416 (P14416 whole entry, looked up): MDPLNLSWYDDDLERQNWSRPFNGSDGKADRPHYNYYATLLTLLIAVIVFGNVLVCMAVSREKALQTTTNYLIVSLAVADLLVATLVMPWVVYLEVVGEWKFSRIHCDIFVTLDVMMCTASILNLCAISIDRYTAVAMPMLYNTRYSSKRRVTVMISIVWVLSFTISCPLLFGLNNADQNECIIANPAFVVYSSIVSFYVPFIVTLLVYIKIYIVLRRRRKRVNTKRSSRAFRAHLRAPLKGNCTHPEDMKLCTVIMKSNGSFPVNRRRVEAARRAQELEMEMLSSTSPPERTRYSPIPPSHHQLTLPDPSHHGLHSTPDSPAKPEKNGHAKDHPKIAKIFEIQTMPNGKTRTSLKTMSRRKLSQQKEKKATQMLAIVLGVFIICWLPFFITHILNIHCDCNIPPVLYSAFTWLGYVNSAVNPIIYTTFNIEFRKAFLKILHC
Outline: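 Dopamine at EC80 is the agonist stimulus; test compounds precede it by 180 s. Calcium flux read kinetically in a force-coupled, inducible HEK293 T-REx D2 cell line.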
Further: 0% is about no effect.

Row | SMILES | inhibition
1 | CCc1ccc(-c2nc3cc(NC(=O)c4ccc(F)cc4)ccc3o2)cc1 | -11.1%
2 | Cc1ccc(CNC(=O)CCN2C(=O)C(C)Oc3ccc(C)cc32)cc1 (configuration not stated) | 4.55%
3 | COc1ccc(NC(=O)Cn2ncc3c4ccccc4n(Cc4ccccc4)c3c2=O)cc1OC | 4.9%
4 | COc1ccccc1-c1ncnn1-c1sc2c(c1C#N)CCCCC2 | 8.13%
5 | COc1cc(NS(=O)(=O)c2ccc3c(c2)OCC(C(=O)N2CCCC2)O3)cc(OC)c1 (configuration not stated) | -9.62%
6 | Cc1ccc(NC(=O)Cn2nc(-c3ccc(Cl)cc3)c3ccccc3c2=O)cc1 | 4.77%
7 | CCN(CC)c1ccc(NC(=O)C2CCCN(S(=O)(=O)c3ccc4c(c3)oc(=O)n4C)C2)c(C)c1 (configuration not stated) | 12.2%
8 | O=C(Nc1nncs1)c1ccc(Br)c(S(=O)(=O)N2CCCC2)c1 | active: 55.9%
9 | COc1cc(OC)cc(C(=O)OCC(=O)Nc2ccc3[nH]c(=O)[nH]c3c2)c1 | active: 35.5%
10 | CCC(Sc1nc2n[nH]c(C)c2c(=N)n1-c1ccc(Br)cc1)C(=O)N(CC)CC (configuration not stated) | 2.63%
11 | CCOC(=O)c1c(S(=O)(=O)N2CCN(c3cc(Cl)ccc3C)CC2)c(C)n(C)c1C | 3.75%
12 | Cc1cc(C)cc(NC(=O)C2CCCN(c3nnc(-n4c(C)ccc4C)s3)C2)c1 (configuration not stated) | 6.28%
13 | COc1ccc(N2CCN(C(=O)c3cc4c(s3)-c3c(C)cccc3OC4)CC2)cc1 | -2.25%
14 | CCCc1ccc(OC(=O)c2sc3ncn(Cc4cccc(F)c4)c(=O)c3c2C)cc1 | 7.98%
15 | CCCCN(C(=O)Nc1ccc(OCC)cc1)C1CCN(C(C)=O)CC1 | 11.4%
16 | COCCn1c(SCC(=O)Nc2ccc(Br)cc2)nc2c([nH]c3ccccc32)c1=O | -16.9%
17 | Cc1ccc(-c2onc(C)c2C)cc1S(=O)(=O)N1CCc2ccccc21 | 10.9%
18 | COC(=O)c1ccc(NC(=O)C(c2ccccc2)N2Cc3ccccc3C2=O)cc1 (configuration not stated) | -7.39%
19 | CN1CCN(c2ccc(-c3nc(-c4ccccc4)no3)cc2[N+](=O)[O-])CC1 | -6.62%
20 | Cc1cccc(CCNC(=O)CCc2c(C)nc3c(-c4ccc(F)cc4)c(C)nn3c2C)c1 | -9.85%
21 | CCOc1ccc(OCCSc2ccc(S(=O)(=O)N3CCN(C)CC3)cn2)cc1 | active: 30.3%
22 | Cc1nc(-c2ccc(Cl)cc2)sc1CCNC(=O)C(=O)Nc1ccccc1C#N | 14.5%
23 | CC(C)(C)c1cc(C(=O)NNC(=O)Nc2cccc(Cl)c2)n(Cc2ccccc2)n1 | active: 49.7%
24 | CC1=Nn2c(nc3sc4c(c3c2=O)CCCC4)SC1 | active: 54.8%
25 | COCCNC(=O)c1sc2nc3n(c(=O)c2c1C)CCC3 | 13.1%

Row | SMILES | inhibition
26 | COc1ccc(N2CC(c3nc(-c4ccccc4C)no3)CC2=O)cc1Cl (configuration not stated) | -10.2%
27 | CCc1ccc(NS(=O)(=O)c2ccc3[nH]cc(C(=O)NCCc4ccccc4)c(=O)c3c2)cc1 | -5.12%
28 | CCOC(=O)c1cccc(NC(=O)Cn2cnc3nc4c(cc3c2=O)CCCC4)c1 | 5.35%
29 | CCN(CC)CCCNC(=O)c1ccc2c(c1)NC(=O)C(CS(=O)(=O)Cc1ccc(F)cc1Cl)N2 (configuration not stated) | 11.2%
30 | COc1cccc(-c2noc(COc3cccc(C)c3C)n2)c1 | -1.37%
31 | Cc1ccc2nc(N3CCN(c4ccc(F)cc4)CC3)c3nnnn3c2c1 | -1.77%
32 | Cc1ccc(C(c2cc(Cl)c3cccnc3c2O)N2CCN(C)CC2)cc1 (configuration not stated) | active: 38.6%
33 | CCOC(=O)c1c(NC(=O)COc2ccc(OC)cc2)sc(C(=O)N(CC)CC)c1C | 2.15%
34 | N#C/C(=C\c1ccccc1)c1nc(-c2cc3c(ccc4ccccc43)oc2=O)cs1 | -2.43%
35 | CCCCN(CC)CCNC(=O)c1nn(-c2ccc(OC)cc2)c(=O)c2c1c1ccccc1n2C | 0.79%
36 | Fc1ccc(CN2CCN(c3ncccn3)CC2)cc1 | active: 83.7%
37 | Cc1cccc(CNC(=O)C2CCN(S(=O)(=O)c3cccc4nonc34)CC2)c1 | 20.4%
38 | CCC1=Nc2cc(C(=O)N3CCC(C)CC3)ccc2Sc2ccc(C)cc21 | 1.53%
39 | Cc1ccc(C)c(NC(=O)C2CCCN2S(=O)(=O)c2ccc3c(c2)CCCC(=O)N3)c1 (configuration not stated) | -1.81%
40 | COCCNc1sc(S(=O)(=O)c2ccc(C)cc2)nc1S(=O)(=O)c1ccc(C)cc1 | -3.04%
41 | CC(=O)Nc1ccc(NC(=O)CSc2nccn2C)cc1 | -20.9%
42 | N#Cc1ccc(C(c2ccc(C#N)cc2)n2cncn2)cc1 | active: 48.6%
43 | CCCN(C(=O)c1noc2c1COc1ccc(C)cc1-2)c1ccc(Cl)c(Cl)c1 | 1.5%
44 | CCOC(=O)c1cc2c(=O)n3ccccc3nc2n(CC(C)C)c1=NC(=O)c1c(-c2c(F)cccc2Cl)noc1C | -10.7%
45 | COC(=O)c1ccccc1NC(=O)c1c(NC(=O)c2ccco2)sc2c1CCC(C(C)(C)C)C2 (configuration not stated) | -5.4%
46 | CCCCN(CC)CCNC(=O)Cn1cc2c(n1)-c1c(oc(C(=O)N3CCCC3)c1C)CC2 | 1.77%
47 | CN(C(=O)CSc1cn(CC(=O)N2CCOCC2)c2ccccc12)c1ccccc1 | -3.36%
48 | CC(=O)N1CCCc2cc(S(=O)(=O)N3CCC(C(=O)NCc4cccc(C)c4)CC3)ccc21 | 16.4%
49 | COc1cccc(Cn2c(=O)n(Cc3ccco3)c(=O)c3oc4ccccc4c32)c1 | 6.63%
50 | CC(=O)CCc1ccc(OCCCCN2CCC(Cc3ccccc3)CC2)cc1 | active: 54.2%

Row | SMILES | inhibition
51 | CCCOc1cccc(C(=O)N(Cc2ccc(C)o2)C2CCS(=O)(=O)C2)c1 (configuration not stated) | 5.03%
52 | CN1/C(=C/C=N/n2cnnc2)C(C)(C)c2ccccc21 | active: 56.3%
53 | COc1ccc(Cl)cc1NC(=O)CN1C(=O)COc2ccc(S(=O)(=O)NC3CCCC3)cc21 | -13.8%
54 | Cc1ccc(-c2nnc(Nc3ccc(O)cc3)c3ccccc23)cc1S(=O)(=O)N1CCOCC1 | 7.84%
55 | COc1ccc(-c2cc(C(=O)Nc3c(C)nn(Cc4ccc(C)cc4)c3C)no2)cc1OC | 3.75%
56 | Cc1ccc(Nc2nn3c(=O)c4cc5c(cc4nc3s2)OCO5)cc1Cl | 14.4%
57 | CCOC(=O)c1cc(-c2ccccc2)n(-c2cccc(C(=O)Nc3ccc(OCC)cc3)c2)c1C | 7.98%
58 | COc1cccc(NS(=O)(=O)c2ccc(-c3cc(C)no3)s2)c1 | 3.49%
59 | COc1cc(NS(=O)(=O)c2ccc3[nH]c4c(c3c2)CCCCCC4)cc(OC)c1 | -8.74%
60 | CCc1ccc(NC(=O)C(CC)n2c(=O)c(C(F)(F)F)nc3ccccc32)cc1 (configuration not stated) | 4.21%
61 | Cc1ccc(NC(=O)CC(C)S(=O)(=O)c2ccc3c(c2)NC(=O)CO3)cc1Cl (configuration not stated) | 22.5%
62 | Cc1nc2nc(SCC(=O)NCc3ccccc3Cl)nn2c(C)c1Cc1ccccc1 | 5.62%
63 | CCOC(=O)Cn1c(=O)c2c(nc3n2CCN3c2ccc(CC)cc2)n(C)c1=O | 16.3%
64 | COc1cc(Cl)c(C)cc1Nc1ncnc2c1nc1n2CCCC1 | 16.1%
65 | Cc1ccc(-c2nc(SCC(=O)NCc3ccco3)c3c(=O)n(C)c(=O)n(C)c3n2)cc1 | -6.16%
66 | CCc1cccc(CC)c1NC(=O)CN1C(=O)C(=O)c2ccccc21 | 7.3%
67 | CC(C)c1ccc(NC(=O)Cn2c(=O)n(CCc3ccccc3)c(=O)c3ccccc32)cc1 | -2.64%
68 | Cc1ccc(Nc2nnc(-c3ccc(C)c(S(=O)(=O)NCc4nc5ccccc5[nH]4)c3)c3ccccc23)cc1 | -7.01%
69 | CC1CCCC(NC(=O)CC2Nc3ccccc3NC2=O)C1C (configuration not stated) | active: 30.5%
70 | Cc1ccc(C(=O)Nc2cccc(-c3nc4ccccc4o3)c2)c(Cl)c1 | -6.46%
71 | Cc1ccccc1OCC(O)Cn1c(=N)n(CCN2CCCCC2)c2ccccc21 (configuration not stated) | 3.4%
72 | CC(C)COc1ccc(C(=O)N(Cc2ccc(N(C)C)cc2)Cc2ccco2)cc1 | -6.04%
73 | CCc1ccc(NC(=O)CCS(=O)(=O)c2ccc3c(c2)n(C)c(=O)c(=O)n3C)cc1 | 1.74%
74 | Cc1ccc(/C=C/c2nc3ccccc3[nH]2)cc1 | -23%
75 | CC1CCCCN1c1nnc(NC(=O)Nc2ccccc2F)s1 (configuration not stated) | -8.13%

Row | SMILES | inhibition
76 | CCC(Cn1nnc2ccccc2c1=O)NC(=O)Nc1ccc(C)c(C)c1 (configuration not stated) | -0.0057%
77 | O=C(CCN1CCN(c2ccccc2)CC1)NNC(=S)Nc1ccccc1Cl | active: 66.3%
78 | COCCCNC(=O)CSc1nc2cc(OC)c(OC)cc2c2nc(-c3ccccc3)nn12 | -1.41%
79 | Cc1ccc(OCc2nc3ccccc3n2CCOc2ccc(Cl)cc2)cc1 | 2.56%
80 | CC1CCCN(C(=O)c2cc3c(Cl)nc4ccccc4c3s2)C1 (configuration not stated) | -1.41%
81 | CS(=O)(=O)CCC(C(=O)Nc1cccc(C(F)(F)F)c1)N1Cc2ccccc2C1=O (configuration not stated) | -12.5%
82 | Cc1ccc(CNS(=O)(=O)c2cc3c(cc2C)NC(=O)CO3)cc1 | 11.1% and active: 47.5%
83 | CN(CC(=O)Nc1cccc(C(F)(F)F)c1)S(=O)(=O)c1cccs1 | -2.11%
84 | O=C(Cn1c(-c2cccs2)cc2ccccc21)NCCc1ccc(Cl)cc1 | 0.26%
85 | Cc1nc(SCC(=O)Nc2ccccc2Cl)oc1C | active: 31.2%
86 | COC(=O)C(C)Sc1ncnc2c1c(-c1ccccc1)cn2-c1ccc(F)cc1 (configuration not stated) | -20%
87 | CCOc1ccc(S(=O)(=O)Nc2ccc3c(c2)N(C(C)=O)CCC3)cc1 | -22.7%
88 | CCOc1ccccc1NC(=O)c1cc2c(=O)oc3ccccc3c2s1 | -0.0974%
89 | O=C(c1ccc(CSc2nc3ccncc3n2Cc2cccc(F)c2)cc1)N1CCCCCC1 | 7.43%
90 | Cc1cncn1CCc1nc2c3ccccc3nc(SCC(=O)Nc3cccc(Cl)c3)n2n1 | -17.7%
91 | COc1ccc(OC)c(NC(=O)c2c(NCc3cccs3)sc3c2CCCC3)c1 | 6.61%
92 | Cc1ccc(Cn2c(=O)n(CCCC(=O)NCc3ccccc3Cl)c(=O)c3ccccc32)cc1 | 10.4%
93 | Cc1ccc(NC(=O)C2CCN(c3nc4ccccc4[nH]3)CC2)c(C)c1 | -8.62%
94 | COC(=O)c1cnc(N2CCN(c3ccccc3F)CC2)c2ccccc12 | -6.52%
95 | COCCN1C(=O)c2[nH]nc(-c3cc(C)ccc3O)c2C1c1ccc(C(C)C)cc1 (configuration not stated) | -0.0327%
96 | Cc1cccc(N2CCN(C(=O)CCc3c(C)nc4ncnn4c3C)CC2)c1C | 1.04%
97 | CCc1ccccc1NC(=O)c1cc(S(=O)(=O)N2CCCC2)cn1C | -11.2%
